Experimental data as given in paper PMC12167477, “Setdb1 and Atf7IP form a hetero-trimeric complex that blocks Setdb1 nuclear export” (The Journal of Biological Chemistry, 2025).
Results are given in words; binding and its absence hold for the method and conditions named. In cells and extracts the contact can be indirect. Some results given as binding are weak or reduced against the parent protein; the word gives no strength. Where a sequence is shown, tags or fusion partners need not be part of it.

Assays:
Test in all cases: co-IP; HEK293 cells transiently co-transfected; lysis in 30 mM HEPES pH 7.9, 400 mM NaCl, 10% glycerol, 0.05% Tween-20, 2 mM BME, Benzonase; anti-DYKDDDDK magnetic beads, FLAG peptide elution, blots with anti-FLAG, anti-HA, anti-Myc
[1] = biological target: T1, Flag-Atf7IP(1-448) (human) (UniProt Q6VMQ6)
T1 sequence: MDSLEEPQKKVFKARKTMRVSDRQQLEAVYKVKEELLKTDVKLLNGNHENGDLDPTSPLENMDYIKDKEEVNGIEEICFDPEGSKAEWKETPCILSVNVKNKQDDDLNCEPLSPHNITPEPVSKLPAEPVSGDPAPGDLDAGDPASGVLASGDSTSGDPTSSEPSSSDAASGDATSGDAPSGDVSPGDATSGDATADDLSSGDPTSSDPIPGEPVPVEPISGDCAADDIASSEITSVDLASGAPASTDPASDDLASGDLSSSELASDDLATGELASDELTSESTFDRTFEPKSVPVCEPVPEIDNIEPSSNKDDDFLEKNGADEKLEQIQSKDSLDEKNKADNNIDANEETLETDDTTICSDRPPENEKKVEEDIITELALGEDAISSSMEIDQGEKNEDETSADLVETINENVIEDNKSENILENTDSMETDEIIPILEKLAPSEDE

[2] = biological target: T2, Flag-Atf7IP(422-841) (human) (UniProt Q6VMQ6)
T2 sequence: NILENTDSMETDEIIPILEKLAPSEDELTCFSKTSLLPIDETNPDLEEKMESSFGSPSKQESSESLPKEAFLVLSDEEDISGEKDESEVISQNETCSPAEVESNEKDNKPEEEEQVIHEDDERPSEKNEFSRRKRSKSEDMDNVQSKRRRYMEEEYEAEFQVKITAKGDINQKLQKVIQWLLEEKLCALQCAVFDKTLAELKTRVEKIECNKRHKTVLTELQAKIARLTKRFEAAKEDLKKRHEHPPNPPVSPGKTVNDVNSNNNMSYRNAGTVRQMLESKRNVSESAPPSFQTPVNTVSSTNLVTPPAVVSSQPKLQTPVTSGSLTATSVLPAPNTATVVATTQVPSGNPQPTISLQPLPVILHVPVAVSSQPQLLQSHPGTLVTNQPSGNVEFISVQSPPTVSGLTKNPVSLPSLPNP

[3] = biological target: T3, Flag-Atf7IP(836-1270) (human) (UniProt Q6VMQ6)
T3 sequence: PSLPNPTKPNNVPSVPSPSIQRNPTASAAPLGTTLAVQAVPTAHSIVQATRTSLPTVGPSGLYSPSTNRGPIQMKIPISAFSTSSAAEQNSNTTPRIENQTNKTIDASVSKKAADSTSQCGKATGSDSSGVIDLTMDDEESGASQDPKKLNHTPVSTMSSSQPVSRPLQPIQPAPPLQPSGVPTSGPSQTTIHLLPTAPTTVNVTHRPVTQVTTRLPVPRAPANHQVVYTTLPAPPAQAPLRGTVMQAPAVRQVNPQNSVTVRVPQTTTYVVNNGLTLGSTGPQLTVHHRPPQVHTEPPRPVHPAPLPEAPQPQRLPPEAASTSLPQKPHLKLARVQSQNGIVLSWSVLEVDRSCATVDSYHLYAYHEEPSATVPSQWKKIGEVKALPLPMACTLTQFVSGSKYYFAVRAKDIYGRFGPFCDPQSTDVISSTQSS

[4] = biological target: full-length Atf7IP, FLAG- or Myc-tagged (human) (UniProt Q6VMQ6)
[5] = biological target: T4, full-length Atf7IP2, Flag- or Myc-tagged (UniProt Q5U623)
T4 sequence: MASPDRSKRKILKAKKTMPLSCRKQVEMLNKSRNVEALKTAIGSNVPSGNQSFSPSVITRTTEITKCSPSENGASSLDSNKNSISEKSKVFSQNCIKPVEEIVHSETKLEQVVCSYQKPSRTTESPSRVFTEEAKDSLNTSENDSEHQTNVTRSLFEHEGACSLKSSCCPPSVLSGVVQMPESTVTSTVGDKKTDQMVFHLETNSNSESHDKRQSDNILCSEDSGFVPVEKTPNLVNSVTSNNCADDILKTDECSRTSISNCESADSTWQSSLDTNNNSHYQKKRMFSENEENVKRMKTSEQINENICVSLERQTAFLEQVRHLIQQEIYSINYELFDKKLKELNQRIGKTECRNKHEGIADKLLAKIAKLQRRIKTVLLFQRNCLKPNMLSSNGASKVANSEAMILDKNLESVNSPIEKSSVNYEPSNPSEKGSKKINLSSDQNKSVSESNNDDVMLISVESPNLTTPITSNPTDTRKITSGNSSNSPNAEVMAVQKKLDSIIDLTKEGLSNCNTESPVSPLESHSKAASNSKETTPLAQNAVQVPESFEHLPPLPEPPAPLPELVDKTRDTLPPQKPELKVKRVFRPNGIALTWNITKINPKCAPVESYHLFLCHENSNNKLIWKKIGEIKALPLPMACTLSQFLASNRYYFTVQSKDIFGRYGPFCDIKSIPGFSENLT

binding [1]: no binding
binding [2]: binds
binding [3]: no binding
binding [4]: binds
binding [5]: binds
B1: full-length Atf7IP, FLAG- or Myc-tagged (protein, UniProt Q6VMQ6 1-1270)
chain: MDSLEEPQKKVFKARKTMRVSDRQQLEAVYKVKEELLKTDVKLLNGNHENGDLDPTSPLENMDYIKDKEEVNGIEEICFDPEGSKAEWKETPCILSVNVKNKQDDDLNCEPLSPHNITPEPVSKLPAEPVSGDPAPGDLDAGDPASGVLASGDSTSGDPTSSEPSSSDAASGDATSGDAPSGDVSPGDATSGDATADDLSSGDPTSSDPIPGEPVPVEPISGDCAADDIASSEITSVDLASGAPASTDPASDDLASGDLSSSELASDDLATGELASDELTSESTFDRTFEPKSVPVCEPVPEIDNIEPSSNKDDDFLEKNGADEKLEQIQSKDSLDEKNKADNNIDANEETLETDDTTICSDRPPENEKKVEEDIITELALGEDAISSSMEIDQGEKNEDETSADLVETINENVIEDNKSENILENTDSMETDEIIPILEKLAPSEDELTCFSKTSLLPIDETNPDLEEKMESSFGSPSKQESSESLPKEAFLVLSDEEDISGEKDESEVISQNETCSPAEVESNEKDNKPEEEEQVIHEDDERPSEKNEFSRRKRSKSEDMDNVQSKRRRYMEEEYEAEFQVKITAKGDINQKLQKVIQWLLEEKLCALQCAVFDKTLAELKTRVEKIECNKRHKTVLTELQAKIARLTKRFEAAKEDLKKRHEHPPNPPVSPGKTVNDVNSNNNMSYRNAGTVRQMLESKRNVSESAPPSFQTPVNTVSSTNLVTPPAVVSSQPKLQTPVTSGSLTATSVLPAPNTATVVATTQVPSGNPQPTISLQPLPVILHVPVAVSSQPQLLQSHPGTLVTNQPSGNVEFISVQSPPTVSGLTKNPVSLPSLPNPTKPNNVPSVPSPSIQRNPTASAAPLGTTLAVQAVPTAHSIVQATRTSLPTVGPSGLYSPSTNRGPIQMKIPISAFSTSSAAEQNSNTTPRIENQTNKTIDASVSKKAADSTSQCGKATGSDSSGVIDLTMDDEESGASQDPKKLNHTPVSTMSSSQPVSRPLQPIQPAPPLQPSGVPTSGPSQTTIHLLPTAPTTVNVTHRPVTQVTTRLPVPRAPANHQVVYTTLPAPPAQAPLRGTVMQAPAVRQVNPQNSVTVRVPQTTTYVVNNGLTLGSTGPQLTVHHRPPQVHTEPPRPVHPAPLPEAPQPQRLPPEAASTSLPQKPHLKLARVQSQNGIVLSWSVLEVDRSCATVDSYHLYAYHEEPSATVPSQWKKIGEVKALPLPMACTLTQFVSGSKYYFAVRAKDIYGRFGPFCDPQSTDVISSTQSS
